{"source": "paper PMC12136788", "binders": {"B1": {"name": "chr9:100852126:100852127:+_ENSMUSG00000037286_ENSMUST00000129269|mus_mus|FALSE|FALSE (ssRNA)", "RNA": "GGGAGUUCUACAGUCCGACGAUCGCCAUGCUCAGACUCAGGUUCCUGAAUCUGCUCUCCCAUGGGACGGCUGUUUUCUCUAAGUACCGUGGAGGUGAGCUGUGGGGUUGGCAAGGGUCCAGGAGUCUGAAUCAUCGUGUCAGUCAACAGAGGAUUGAGCAUCA"}, "B2": {"name": "chr4:41951345:41951346:+_ENSG00000109133_ENST00000513702|hu_mus|motif|central (ssRNA)", "RNA": "GGGAGUUCUACAGUCCGACGAUCAAACAAGUUCCGACAAUAUGGAUUUCUUCUAGAGGAAUAUCGAAGAGUAAGAAAUCGGUAAUAUAUAAAAGGCUGGAGCAAACUUCCUUGGCCACUAAAGAGCAUAAAAACUGUAGCAGGCAACAGAGGAUUGAGCAUCA"}, "B3": {"name": "chr5:176910979:176910980:-_ENSG00000196923_ENST00000355841|hu_mus|FALSE|FALSE (ssRNA)", "RNA": "GGGAGUUCUACAGUCCGACGAUCCUCCAGCAUCAAUCUUGAAGUCACAGCCUCGACAUUUUGUGCCAAACAUCUUCUCAUAGUCUCGCUCGCAGUAGGGGGCCCCUUCUUCCAUGUAAAAGGCUCUGUUGCGAAUUGGCGUUUCAACAGAGGAUUGAGCAUCA"}, "B4": {"name": "120692271_120696741_4937_CDS_ENSMUSG00000027272_ENSMUST00000028728|mouse|control|control (ssRNA)", "RNA": "GGGAGUUCUACAGUCCGACGAUCCUCAUCAUCUGCAGACCGUGGACACCUAAAGUGAGAAGCCUGAUUUAGAAGACAGCUGUAGUCCUCAGGAAGCUCUAUCAAACUAUUUCUUUUUCUAGGGUACCUGACCACAGCACUUUUCAACAGAGGAUUGAGCAUCA"}, "B5": {"name": "chr16:28827448:28827449:-_ENSMUSG00000051065_ENSMUST00000100023|mus_mus|FALSE|FALSE (ssRNA)", "RNA": "GGGAGUUCUACAGUCCGACGAUCGGACUCUCAGUGAAAACUCGGGAGAAGAACGAGGUCAAAGACAGAACAUCAGCCGAAGAGGAAGAGAAUGUGUUCAAAUAUGCCAGGAGGAGAUGUGUUCCCCCAAACCCACCAACAAAUCAACAGAGGAUUGAGCAUCA"}, "B6": {"name": "chr17:25053547:25053548:-_ENSMUSG00000024163_ENSMUST00000126280|mus_mus|FALSE|FALSE (ssRNA)", "RNA": "GGGAGUUCUACAGUCCGACGAUCUGACCUCCAAAUGUAUUGCAAAGAACCCACACUCUUAGCGGUCAUUCCUCACCAUGAGUAGCCACAACUGUUUGGUUAAAACACUACAGUAUAUAAAAACAAAAAACAAAACAAAAAACACAACAGAGGAUUGAGCAUCA"}, "B7": {"name": "chr9:106791465:106791466:-_ENSMUSG00000032575_ENSMUST00000069036|mus_hu|FALSE|FALSE (ssRNA)", "RNA": "GGGAGUUCUACAGUCCGACGAUCUUUAGGCAUCAGUUCAUUUAUCUUCCGGAUGUAGUCAGACUUUUCUGCACAGCCUUUGCAUGUCUCCCCCCAGUCAUCCAGAAUCUUCUUCAGCUCUUUAACUCGGAGCUUCUUCAGGUCCAACAGAGGAUUGAGCAUCA"}, "B8": {"name": "chr4:39739082:39739083:+_ENSG00000078140_ENST00000261427|perfect_dup|FALSE|FALSE (ssRNA)", "RNA": "GGGAGUUCUACAGUCCGACGAUCUAUUUUUAUCUCUAGUUGAUAUCUUCCACCUUCAUACGGUGUGUCUGGAGGUCCUGCUAUUUCUCCUCUUAAUUCUGUAAAAUUCUCAUCUACAAGAUCUACUUUAAUUUGAUUUUUGCUCAACAGAGGAUUGAGCAUCA"}, "B9": {"name": "chr11:4127340:4127341:+_ENSG00000167325_ENST00000300738|hu_mus|hu_hu_hu_mus_False|98_98 (ssRNA)", "RNA": "GGGAGUUCUACAGUCCGACGAUCGGCAUAGUCAGGGUGCUUAGUAGUCAAGGUCGCGGCUGUCUCAGCAGCCAGGGUGUCCAGUUCCACUGUGGUGACCCCACUAUAUAGGCCUUGGAUUACUUUCAUGGUGAUCUGAGCAGGCAACAGAGGAUUGAGCAUCA"}, "B10": {"name": "118651850_118656837_489_CDS_ENSG00000110367_ENST00000264018|human|control|control (ssRNA)", "RNA": "GGGAGUUCUACAGUCCGACGAUCCUUUGGAGGGAGUUUUAAAGUCUUUUUCCAGUCAUCACCAGGUUUAAUAGUGGUGGUCAUACUCUGUGCUUGCUGCUGAGUGCCAUUAUUGAUUGUGUUGGUGUUUUUCAGCUGGUUCAUCAACAGAGGAUUGAGCAUCA"}, "B11": {"name": "chr12:88041583:88041584:-_ENSMUSG00000021257_ENSMUST00000021682|mus_mus|FALSE|FALSE (ssRNA)", "RNA": "GGGAGUUCUACAGUCCGACGAUCUUCUGCCGGCUCCAGGGUGCAGUUUAAGUGCCAUUUAAACCCCCACACUUCAUUUCUAAAACAGAAACAAGGAGAAACAAGGAAAAGAUAAACCACCAAGCUCUGACCCUCUGCCUCCUUCAACAGAGGAUUGAGCAUCA"}, "B12": {"name": "chr2:48782664:48782665:-_ENSMUSG00000026761_ENSMUST00000141441|mus_hu|motif|central (ssRNA)", "RNA": "GGGAGUUCUACAGUCCGACGAUCCACUCUUUUUUCUAAGAGUUCCAAAAUAUCCAAUCUACAUGUAAGACCAAUAACUGCGGUUGGGGUCUGUGCAGACUGAGAAAUGUCAAAAAGAUUAUAGAGAAGUGUUUGGUUUUUAUGCAACAGAGGAUUGAGCAUCA"}, "B13": {"name": "107399791_107399911_2171_3pUTR_ENSG00000105879_ENST00000440859|human|control|control (ssRNA)", "RNA": "GGGAGUUCUACAGUCCGACGAUCUUUCAAAUUUUUUACAAAUGGUCACCUCUGGGUCAAUUUACUAAACUAGGGGAACAAAGAGAUGUUAAAAUAUAGCUGUGCUCAACUGAGCCACUUAUCUGUACUACAGUAUGGUACUUGCAACAGAGGAUUGAGCAUCA"}, "B14": {"name": "chr11:108017000:108017001:+_ENSG00000075239_ENST00000265838|hu_mus|FALSE|FALSE (ssRNA)", "RNA": "GGGAGUUCUACAGUCCGACGAUCAUUUACUUUUUGGGGGUCAAUCUCCAGCAUUUUAAUGUUGGCUAGCACAACCACACUGAAUGCUUCAUUUACUUCCCACAUGGCAAUGUCUUCUUUUUUCAGUCCUGCAUAUUUAAGAACCAACAGAGGAUUGAGCAUCA"}, "B15": {"name": "chr16:20683585:20683586:+_ENSMUSG00000045983_ENSMUST00000044783|mus_hu|motif|central (ssRNA)", "RNA": "GGGAGUUCUACAGUCCGACGAUCUAUUGCCUCUGUUAACAUCUUCAGUUUGAACAACUCUCCAAUAAACUUGAUAUUCCCGGAAGAGCGCCGCCGGGCUAUGUCCCGAGCCUCUUCCAGCUCUUCCUUCAGGCGUCCUCGUUCCAACAGAGGAUUGAGCAUCA"}, "B16": {"name": "chr7:91030085:91030086:-_ENSMUSG00000070462_ENSMUST00000094216|mus_mus|motif|central (ssRNA)", "RNA": "GGGAGUUCUACAGUCCGACGAUCAAUACUCCAGUACAUGCAGGGUAAAAACUUGACAUUGGGGGGGGGGGGAAAUCACUCGGUAGUGUAAUUUAAAAAAUAAAACACACGCUCACAGUAGCUUUCCCCCCCACUUGCAAAUCACAACAGAGGAUUGAGCAUCA"}, "B17": {"name": "chr7:140404665:140404666:+_ENSG00000090266_ENST00000247866|hu_hu|hu_hu_hu_mus_False|18_88 (ssRNA)", "RNA": "GGGAGUUCUACAGUCCGACGAUCUGCUCCUACUCGUCCAGAGAGUUUACACCUUCAGUCCUCGUCAUCAGGAGGGAUUCCCAGUUCUUCAUCUGUCCACUGUGAAGGAUCUGGAUACGGAAAGUGACCCAGCACAGCAUCCGACAACAGAGGAUUGAGCAUCA"}, "B18": {"name": "chr14:78183846:78183847:+_ENSG00000119705_ENST00000557342|hu_hu|hu_hu_hu_mus_False|38_88 (ssRNA)", "RNA": "GGGAGUUCUACAGUCCGACGAUCUCUCAGAAAUCUUUCUUCAUCAGCAUCAUCAGAUCCGUGCAAAGCCUUUGCUCUUUGAGCUUGAACGUGGAUCUUUACUCCAUAAAGCACUGUCAGAAAAGGUAAUUUUUUUUUUAAAGACAACAGAGGAUUGAGCAUCA"}, "B19": {"name": "chrX:117043865:117043866:-_ENSG00000003096_ENST00000371882|hu_mus|FALSE|FALSE (ssRNA)", "RNA": "GGGAGUUCUACAGUCCGACGAUCGCGAAGCCAGCGACAGGUAGCUUUGAAGAGGUCAAGUUCGGUGCAGCGCUUAAGGCUGUUGCUGGACAGGACAAAGGCAAGGCGCUCGAAGGGAAGCUUCAGGAACUCCCCAGUGCUCAGCAACAGAGGAUUGAGCAUCA"}, "B20": {"name": "chr5:137354059:137354060:-_ENSG00000031003_ENST00000033079|hu_mus|FALSE|FALSE (ssRNA)", "RNA": "GGGAGUUCUACAGUCCGACGAUCGUGAAUAUGCAAGCUGCCAGGUAUGACGGGCUCAGGGAGCUCCUGCAGGAAAAACCUAAGGAGACUAAUGGCUGAGGGGACGUCCGCUUCCUUAACCAAGUCCACCUCUUCUCCACUGUCCAACAGAGGAUUGAGCAUCA"}, "B21": {"name": "chr2:173053163:173053164:-_ENSMUSG00000038400_ENSMUST00000036248|mus_hu|FALSE|FALSE (ssRNA)", "RNA": "GGGAGUUCUACAGUCCGACGAUCGUGCAUUCAGACCAGACAUCACAUGUAAAUAUUUAUACACAGGGAGGUGGGAGGGGAGGGCCACACGAUGCGUUGCUGCGCCCCCCGCCUUCCUCUCACUCCUCUUCUAAGAAGCGCGGACAACAGAGGAUUGAGCAUCA"}, "B22": {"name": "chr3:9412954:9412955:+_ENSG00000134077_ENST00000452837|hu_mus|hu_hu_hu_mus_False|8_28 (ssRNA)", "RNA": "GGGAGUUCUACAGUCCGACGAUCGGUUGAUAUCUCUUCUUUGAUGGCUGGAUUUUCAUAAUAGUCCAAGAUAUGUGAAUCUGAAGUGCUGCUGGCAUGCUUUUUCUUAACAUUUCUCUCAUCUGCUUUGACUUCUUGUCCACACAACAGAGGAUUGAGCAUCA"}}, "note": "The other results are listed elsewhere or left out."}
{"biological_target": "T1, UNK ZnF1-3 (human, UniProt Q9C0B0 31-174)", "T1 sequence": "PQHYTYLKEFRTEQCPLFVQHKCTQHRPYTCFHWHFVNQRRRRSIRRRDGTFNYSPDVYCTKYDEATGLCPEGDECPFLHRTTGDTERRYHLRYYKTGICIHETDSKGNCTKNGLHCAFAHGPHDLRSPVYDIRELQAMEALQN", "test": "nsRBNS (natural sequence RNA bind-n-seq); RBNS binding buffer (assumed for nsRBNS): 25 mM Tris pH 7.5, 150 mM KCl, 3 mM MgCl2, 0.01% Triton X-100, 500 ug/ml BSA, 20 U/ml SUPERase-In, 4 C; UNK is unkempt and MSI1 is Musashi-1; names of the RNAs are library labels; protein concentration not given here; high values mean tight binding", "units": {"binding signal": "enrichment R"}}
{"binder": "B1", "binding signal": 0.8}
{"binder": "B2", "binding signal": 2.46}
{"binder": "B3", "binding signal": 0.719}
{"binder": "B4", "binding signal": 0.851}
{"binder": "B5", "binding signal": 1.96}
{"binder": "B6", "binding signal": 1.85}
{"binder": "B7", "binding signal": 0.725}
{"binder": "B8", "binding signal": 0.379}
{"binder": "B9", "binding signal": 0.84}
{"binder": "B10", "binding signal": 0.327}
{"binder": "B11", "binding signal": 1.73}
{"binder": "B12", "binding signal": 1.09}
{"binder": "B13", "binding signal": 1.46}
{"binder": "B14", "binding signal": 0.578}
{"binder": "B15", "binding signal": 0.561}
{"binder": "B16", "binding signal": 0.48}
{"binder": "B17", "binding signal": 1.33}
{"binder": "B18", "binding signal": 1.02}
{"binder": "B19", "binding signal": 1.12}
{"binder": "B20", "binding signal": 0.886}
{"binder": "B21", "binding signal": 0.678}
{"binder": "B22", "binding signal": 0.312}
